The record followed here is paper PMC6796939.

The target in assay [1] is T1, GST-C4 (Drosophila) (UniProt P18502).
T1 sequence: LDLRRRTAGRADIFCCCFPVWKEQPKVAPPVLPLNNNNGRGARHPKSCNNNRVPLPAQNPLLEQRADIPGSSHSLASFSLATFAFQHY
The assay is described as follows: pull-down; GST pull-down with purified His-PKAc and GST control or GST-tagged Ptc intracellular domains (GST-C1, -C4, -C7); detected by western blot; both purified. A general note: In western blotting, separated proteins are transferred to a membrane and probed.

For assay [2], the target named is T2, GST-C7 (Drosophila) (UniProt P18502).
T2 sequence: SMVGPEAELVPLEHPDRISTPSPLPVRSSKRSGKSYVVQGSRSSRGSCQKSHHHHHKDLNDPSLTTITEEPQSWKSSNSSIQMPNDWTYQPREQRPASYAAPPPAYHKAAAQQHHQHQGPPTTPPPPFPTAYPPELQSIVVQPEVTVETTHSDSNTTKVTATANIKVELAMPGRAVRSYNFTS
The description is as above.

In assay [3] the target is Myc-SmoWT (Drosophila) (UniProt P91682). The assay is described as follows: western blot of dimer and monomer bands; S2 cells transfected with Myc-SmoWT and dsRNA against ptc 5'UTR, with or without Ptc variants; dimer and monomer forms of Myc-SmoWT on western blot.
The target in assay [4] is HA tagged PKAc (3XHA-PKAc) (Drosophila) (UniProt P12370). The assay can be described thus: co-IP; S2 cells co-transfected with tagged constructs; lysed in NP-40 buffer (50 mM Tris-Cl pH 8.0, 0.1 M NaCl, 1% NP-40, 10% glycerol, 1.5 mM EDTA) at 4 °C; primary antibody (anti-V5, anti-HA, anti-Flag) 2 h, protein A/G 1 h; western blot; some panels with or without Hh (Hh plasmid and Hh conditioned medium), some with dsRNA against ptc 5'UTR to knock down endogenous Ptc.

Results are given in words; binding and its absence hold for the method and conditions named. For some of these results: Binding seen in cells or lysates may run through a third protein. Some entries that bind do so weakly or less than the wild type. Sequences can lack the tags named with a protein.

Take “purified His-tagged PKAc (His-PKAc) (from UniProt P12370 1-353) (enzyme)”: the results for the binding result in assay [1] and in assay [2] were “binds” and “no binding”, respectively.

B1: Myc-SmoWT (receptor, UniProt P91682 32-1036)
chain: SSAKFGSTTPASAQQSDVELEPINGTLNYRLYAKKGRDDKPWFDGLDSRHIQCVRRARCYPTSNATNTCFGSKLPYELSSLDLTDFHTEKELNDKLNDYYALKHVPKCWAAIQPFLCAVFKPKCEKINGEDMVYLPSYEMCRITMEPCRILYNTTFFPKFLRCNETLFPTKCTNGARGMKFNGTGQCLSPLVPTDTSASYYPGIEGCGVRCKDPLYTDDEHRQIHKLIGWAGSICLLSNLFVVSTFFIDWKNANKYPAVIVFYINLCFLIACVGWLLQFTSGSREDIVCRKDGTLRHSEPTAGENLSCIVIFVLVYYFLTAGMVWFVFLTYAWHWRAMGHVQDRIDKKGSYFHLVAWSLPLVLTITTMAFSEVDGNSIVGICFVGYINHSMRAGLLLGPLCGVILIGGYFITRGMVMLFGLKHFANDIKSTSASNKIHLIIMRMGVCALLTLVFILVAIACHVTEFRHADEWAQSFRQFIICKISSVFEEKSSCRIENRPSVGVLQLHLLCLFSSGIVMSTWCWTPSSIETWKRYIRKKCGKEVVEEVKMPKHKVIAQTWAKRKDFEDKGRLSITLYNTHTDPVGLNFDVNDLNSSETNDISSTWAAYLPQCVKRRMALTGAATGNSSSHGPRKNSLDSEISVSVRHVSVESRRNSVDSQVSVKIAEMKTKVASRSRGKHGGSSSNRRTQRRRDYIAAATGKSSRRRESSTSVESQVIALKKTTYPNASHKVGVFAHHSSKKQHNYTSSMKRRTANAGLDPSILNEFLQKNGDFIFPFLQNQDMSSSSEEDNSRASQKIQDLNVVVKQQEISEDDHDGIKIEELPNSKQVALENFLKNIKKSNESNSNRHSRNSARSQSKKSQKRHLKNPAADLDFRKDCVKYRSNDSLSCSSEELDVALDVGSLLNSSFSGISMGKPHSRNSKTSCDVGIQANPFELVPSYGEDELQQAMRLLNAASRQRTEAANEDFGGTELQGLLGHSHRHQREPTFMSESDKLKMLLLPSK
For the molecule B1, the binding result in assay [3] was “binds”.

B2: V5-tagged Ptc (PtcWT-V5) (receptor, UniProt P18502 1-1286)
chain: MDRDSLPRVPDTHGDVVDEKLFSDLYIRTSWVDAQVALDQIDKGKARGSRTAIYLRSVFQSHLETLGSSVQKHAGKVLFVAILVLSTFCVGLKSAQIHSKVHQLWIQEGGRLEAELAYTQKTIGEDESATHQLLIQTTHDPNASVLHPQALLAHLEVLVKATAVKVHLYDTEWGLRDMCNMPSTPSFEGIYYIEQILRHLIPCSIITPLDCFWEGSQLLGPESAVVIPGLNQRLLWTTLNPASVMQYMKQKMSEEKISFDFETVEQYMKRAAIGSGYMEKPCLNPLNPNCPDTAPNKNSTQPPDVGAILSGGCYGYAAKHMHWPEELIVGGAKRNRSGHLRKAQALQSVVQLMTEKEMYDQWQDNYKVHHLGWTQEKAAEVLNAWQRNFSREVEQLLRKQSRIATNYDIYVFSSAALDDILAKFSHPSALSIVIGVAVTVLYAFCTLLRWRDPVRGQSSVGVAGVLLMCFSTAAGLGLSALLGIVFNAASTQVVPFLALGLGVDHIFMLTAAYAESNRREQTKLILKKVGPSILFSACSTAGSFFAAAFIPVPALKVFCLQAAIVMCSNLAAALLVFPAMISLDLRRRTAGRADIFCCCFPVWKEQPKVAPPVLPLNNNNGRGARHPKSCNNNRVPLPAQNPLLEQRADIPGSSHSLASFSLATFAFQHYTPFLMRSWVKFLTVMGFLAALISSLYASTRLQDGLDIIDLVPKDSNEHKFLDAQTRLFGFYSMYAVTQGNFEYPTQQQLLRDYHDSFVRVPHVIKNDNGGLPDFWLLLFSEWLGNLQKIFDEEYRDGRLTKECWFPNASSDAILAYKLIVQTGHVDNPVDKELVLTNRLVNSDGIINQRAFYNYLSAWATNDVFAYGASQGKLYPEPRQYFHQPNEYDLKIPKSLPLVYAQMPFYLHGLTDTSQIKTLIGHIRDLSVKYEGFGLPNYPSGIPFIFWEQYMTLRSSLAMILACVLLAALVLVSLLLLSVWAAVLVILSVLASLAQIFGAMTLLGIKLSAIPAVILILSVGMMLCFNVLISLGFMTSVGNRQRRVQLSMQMSLGPLVHGMLTSGVAVFMLSTSPFEFVIRHFCWLLLVVLCVGACNSLLVFPILLSMVGPEAELVPLEHPDRISTPSPLPVRSSKRSGKSYVVQGSRSSRGSCQKSHHHHHKDLNDPSLTTITEEPQSWKSSNSSIQMPNDWTYQPREQRPASYAAPPPAYHKAAAQQHHQHQGPPTTPPPPFPTAYPPELQSIVVQPEVTVETTHSDSNTTKVTATANIKVELAMPGRAVRSYNFTS
Take B2: in assay [4], the binding entry was “binds”.
